# Measured values: paper PMC4336329 (PLoS ONE, 2015)
# Screen size: about 310,000 compounds; about 14,000 (4.5%) showed an effect of 50% or more. Effects have a minus sign here. This is one part of the list.
# Biological target: human ether-à-go-go-related gene (hERG) potassium channel (human, UniProt Q12809)
# Experiment: primary screen, population patch clamp on CHO cells stably expressing hERG
# 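Note: peak tail current of the secondary pulse compared with the same well before compound.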
# Sequence of human ether-à-go-go-related gene (hERG) potassium channel (Q12809 whole entry, looked up): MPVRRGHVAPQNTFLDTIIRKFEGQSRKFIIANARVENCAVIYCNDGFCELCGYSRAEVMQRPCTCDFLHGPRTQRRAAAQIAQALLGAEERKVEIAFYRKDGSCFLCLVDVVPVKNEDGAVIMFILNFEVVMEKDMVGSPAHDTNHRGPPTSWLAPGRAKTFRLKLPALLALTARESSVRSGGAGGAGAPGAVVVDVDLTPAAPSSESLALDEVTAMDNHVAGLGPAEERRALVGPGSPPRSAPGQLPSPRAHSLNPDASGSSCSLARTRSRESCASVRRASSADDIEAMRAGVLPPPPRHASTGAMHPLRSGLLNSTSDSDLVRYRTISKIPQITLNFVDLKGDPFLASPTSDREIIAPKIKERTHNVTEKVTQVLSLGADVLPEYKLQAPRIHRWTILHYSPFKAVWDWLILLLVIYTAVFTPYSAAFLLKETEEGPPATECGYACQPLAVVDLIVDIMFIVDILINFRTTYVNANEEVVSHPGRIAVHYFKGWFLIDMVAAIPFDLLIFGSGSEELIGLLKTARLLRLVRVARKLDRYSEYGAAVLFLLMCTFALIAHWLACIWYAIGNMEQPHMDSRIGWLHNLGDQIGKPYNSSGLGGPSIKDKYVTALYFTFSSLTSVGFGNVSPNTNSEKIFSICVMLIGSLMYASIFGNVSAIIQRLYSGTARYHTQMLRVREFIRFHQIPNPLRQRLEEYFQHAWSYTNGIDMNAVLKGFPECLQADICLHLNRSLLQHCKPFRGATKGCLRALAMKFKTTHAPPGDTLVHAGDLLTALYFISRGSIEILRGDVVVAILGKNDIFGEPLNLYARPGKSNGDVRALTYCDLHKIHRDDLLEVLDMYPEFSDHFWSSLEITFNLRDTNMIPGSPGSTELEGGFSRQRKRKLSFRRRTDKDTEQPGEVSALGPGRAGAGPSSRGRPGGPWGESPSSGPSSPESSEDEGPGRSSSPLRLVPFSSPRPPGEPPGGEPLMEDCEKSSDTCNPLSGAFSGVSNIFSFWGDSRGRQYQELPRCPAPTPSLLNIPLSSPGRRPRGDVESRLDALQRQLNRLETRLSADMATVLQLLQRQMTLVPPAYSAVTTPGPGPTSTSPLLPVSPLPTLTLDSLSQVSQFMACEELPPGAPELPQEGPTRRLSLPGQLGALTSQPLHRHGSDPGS
row,SMILES,"hERG current change (%, negative = inhibition) at 10uM"
1,CCOC(=O)N1CCN(C(=O)c2ccc3c(=O)n(-c4ccc(OC)cc4)c(=S)[nH]c3c2)CC1,18.4%
2,O=C(c1cnn(-c2ccccc2)c1)c1cc(F)ccc1O,14.6%
3,C=CCn1c(COc2ccc3c(c2)CCCC3)nnc1SCC(=O)Nc1cccc(SC)c1,15.1%
4,CC(C)Cc1ccc(C(C)C(=O)Nc2ccc(O)cc2)cc1 (stereo not shown),11.3%
5,C=CCN1C(=O)CSc2ccc(C(=O)NCc3cccs3)cc21,-14.3%
6,Cc1cc(C(=O)NC2CCCc3ccccc32)ccc1[N+](=O)[O-] (stereo not shown),9.18%
7,O=C(O)COc1cccc(NC(=O)C2CCCO2)c1 (stereo not shown),10%
8,COc1cc(C(=O)O)c2ccccc2n1,15.7%
9,N#Cc1c2c(c[nH]c1=O)CCN2Cc1ccccc1,11.9%
10,CCCCN(CC)c1nc(N)c(C#N)c(CC#N)c1C#N,-24.9%
11,CN1CCN(C(=O)c2cnn3c(C(F)(F)F)cc(-c4ccc5c(c4)OCO5)nc23)CC1,-14.7%
12,Cc1csc(NC(=O)CCC(=O)N(CC(=O)NC2CCCC2)Cc2ccccc2)n1,-26.9%
13,Cc1ccc2[nH]c3c(=O)n4c(nc3c2c1)SCC4,23.6%
14,COc1cccc(NC(=O)Cn2c3ccc(OC)cc3c3nc4n(c(=O)c32)CCS4)c1,12%
15,NC(N)=NS(=O)(=O)c1ccc(NC(=S)NC(=O)/C=C/c2cccs2)cc1,9.7%
16,Cc1ccc(C(=O)NC(=C(Cl)Cl)S(=O)(=O)c2ccccc2)cc1,15.4%
17,COc1ccc(OC)c(N2C(=O)NC(=O)C(CCc3ccncc3)(CCc3ccncc3)C2=O)c1,-41.2%
18,Cc1ccc(C(=O)Cn2cnc3ccccc3c2=O)cc1C,2.57%
19,O=C(Cc1noc2ccccc12)Nc1ccccn1,6.57%
20,O=C(OCC(=O)c1ccc(Cl)cc1Cl)c1ccc2c(c1)C(=O)N(c1cccc3ncccc13)C2=O,4.97%
21,Cc1cc(NC(=O)CSc2nc3ccccc3c(=O)n2C2CCCC2)no1,-4.71%
22,CCOC(=O)c1cnn(-c2nc(CC)nc3sc4c(c23)CCC4)c1N,8.44%

row,SMILES,"hERG current change (%, negative = inhibition) at 10uM"
1,Cc1cc2ccccn2c1C(C[N+](=O)[O-])c1ccc(N(C)C)cc1 (stereo not shown),24.1%
2,S=C1NC2(CCCCC2)NN1c1ccccc1,-7.66%
3,COc1ccc(C(=O)C2CCCN(C3CSCCSC3)C2)c(C)c1 (stereo not shown),-13%
4,CC(=O)Nc1ccc(NC(=O)CCCCCN2C(=O)c3ccccc3C2=O)cc1,-1.63%
5,NC(=O)NC(=O)COC(=O)[C@H](Cc1ccccc1)NC(=O)c1cccs1,4.21%
6,CCOC(=O)C1CCCN(C(=O)c2ccc(CS(=O)(=O)c3ccc(Br)cc3)o2)C1 (stereo not shown),-38.8%
7,COc1ccccc1N1CCN(C(=O)c2cc3cc(Cl)ccc3[nH]2)CC1,5.58%
8,COc1cc(Cc2[nH+]ccc3cc(OC)c(OC)cc23)c(S(=O)(=O)[O-])cc1OC,11.6%
9,O=C(CSc1ncccn1)N/N=C/c1cccs1,5.75%
10,COC(=O)c1[nH]c(C)c(/C(O)=C2\C(=O)C(=O)N(CCN(C)C)C2c2cccc(OC)c2OC)c1C (stereo not shown),15.1%
11,COc1ccc(S(=O)(=O)N2CCCOC2CNC(=O)C(=O)NCc2ccccc2F)cc1C (stereo not shown),15.4%
12,COc1ccc(COC[C@H](C)[C@H](O)[C@@H](C)[C@H]2OC(=O)[C@@H]2C)cc1,13.6%
13,CCN(CC)CCN(CC(=O)N(C1CCCCC1)C1CCCCC1)C(=O)c1cccnc1.Cl.O,-71.9%
14,O=C(NC1CCN(C(=O)Nc2cccc(F)c2)CC1)c1ccco1,-9.05%
15,CC(Oc1cccc(Br)c1)C(=O)N1CCCN(C)CC1 (stereo not shown),-7.34%
16,CC1(C)C(=O)OC(c2c3ccccc3cc3ccccc23)C(C)(C)C1=O (stereo not shown),-10.3%
17,CN1CCN(CCCNC(=O)c2ccc(CS(=O)(=O)c3ccc(Br)cc3)o2)CC1,-10.3%
18,CN(C)N1C(N)=C(C#N)C(c2cccnc2)C2=C1CCCC2=O (stereo not shown),-9.73%
19,Cc1nc2sc(C)c(C)c2c(=O)[nH]1,13.7%
20,CCC(=O)Nc1ccc(N2CCCCC2)cc1,19.6%
21,COC(=O)COc1c(/C=C\c2nc(O)c([N+](=O)[O-])c(=O)[nH]2)cccc1OC,8.99%
22,COc1nccnc1NS(=O)(=O)c1ccc(NCc2cc(Br)ccc2O)cc1,-12.6%

row,SMILES,"hERG current change (%, negative = inhibition) at 10uM"
1,COc1ccc(NC(=O)/C=C/c2cccc(Br)c2)cn1,-3.16%
2,CC(C)(C)c1ccc(CN(Cc2ccco2)Cc2nnnn2C2CCCC2)cc1,7.72%
3,CC1CC(=O)Nc2ccccc2N1S(=O)(=O)c1ccc(Cl)cc1 (stereo not shown),13.4%
4,COC(=O)C1C(O)=C(C=NCc2ccccc2)C(=O)CC1(C)C (stereo not shown),-5.13%
5,COc1cc2c(cc1NC(=O)c1ccco1)CCCC2,-25.5%
6,CCOC(=O)c1[nH]c2ccc(OC)cc2c1NC(=S)N1CCN(c2ccc(F)cc2)CC1,3.84%
7,COc1ccccc1NC(=S)NC1CCC(CC2CCC(NC(=S)Nc3ccccc3OC)CC2)CC1 (stereo not shown),4.75%
8,Cc1ccc(NC(=O)NC(=O)CSc2n[nH]c(N)n2)c(C)c1,25.9%
9,CCC(=O)N/C(=N/c1nc(C)cc(C)n1)Nc1ccccc1,-39.4%
10,O=c1[nH]c2ccccc2n1C1=CCCC1,-6.36%
11,CS(=O)(=O)c1ccc(Cl)c(NC(=O)COC(=O)c2c(Cl)cccc2Cl)c1,-5.85%
12,CC(C)(C)NC(=O)CN(C(=O)c1csnn1)c1ccccc1-c1ccccc1,14.4%
13,COc1ccc(-c2noc(-c3cc(C)cc(C)c3)n2)cc1OC,9.97%
14,CN(C)c1ccc(C(=O)NN2C(=O)c3ccccc3C2=O)cc1,28%
15,CCOC(=O)N1CCN(C(=O)NC23CC4CC(CC(C4)C2)C3)CC1,10%
16,COC(=O)C1CCN(Cc2ccc(OCCCN3CCN(c4ccc([N+](=O)[O-])cc4)CC3)cc2)CC1,-73.7%
17,CNC(=S)N1CCN(C(=O)C2CCCO2)CC1 (stereo not shown),8.38%
18,CC(C)C(C)NC(=O)COc1ccc(Sc2ccc(OCC(=O)NC(C)C(C)C)cc2)cc1 (stereo not shown),-18.3%
19,CC[C@@H]1C(=O)OC[C@@H]1Cc1cncn1C.O=[N+]([O-])O,8.55%
20,Cn1c(=O)c2cc(S(=O)(=O)NC(C(=O)N3CCCCCC3)c3ccccc3)ccc2n(C)c1=O (stereo not shown),-22.6%
21,O=C(CSc1ncnc2[nH]ncc12)Nc1cccc(Oc2ccccc2)c1,8.64%
22,COc1ccc(Cc2nnc3sc(SCC(=O)Nc4ccccc4)nn3c2=O)cc1OC,1.23%

row,SMILES,"hERG current change (%, negative = inhibition) at 10uM"
1,CC1=C(C#N)C(/C=N/OCc2ccc(Cl)cc2)CC(=O)N1 (stereo not shown),-34.1%
2,CN1C(=O)/C(=C/c2ccc(OCc3ccc(C(=O)O)cc3)c(Cl)c2)NC1=S,20.4%
3,COc1ccc(OC)c(Nc2ncnc3c2cnn3-c2ccccc2)c1,-3.61%
4,CC(NC(=O)c1cc2ccccc2o1)c1ccccc1 (stereo not shown),-4.8%
5,COc1ccc(-c2cc(C(F)F)n3ncc(C(=O)N4CCc5ccccc5C4)c3n2)cc1,-8.97%
6,O=C(NCCO)c1cc2c(s1)CCC2,3.07%
7,Cc1ccc(N2CC(C(=O)N3CCc4ccccc4C3)CC2=O)cc1 (stereo not shown),-44.5%
8,COc1ccc(CN2C(=O)CS(=O)CC2=O)cc1OC,13.8%
9,COc1cc(CC(=O)OCC(=O)N2CC(=O)Nc3ccccc32)cc(OC)c1OC,8.28%
10,Cc1ccc2c(SCC(=O)NCc3ccco3)nc(-c3ccc(F)cc3)nc2c1,-13.2%
11,CCC(Sc1nncn1C)C(=O)Nc1nnc(-c2ccccc2Cl)s1 (stereo not shown),-11%
12,O=C(CC1CCCC1)NCCc1cn2ccccc2n1,1.81%
13,CCOC(=O)[C@H]1[C@H]2COc3cc(OC)ccc3[C@@H]2N2C(=O)c3cc(OC)c(OC)cc3NC(=O)[C@@]12C,-2.44%
14,OC(COc1ccc(Cl)cc1Cl)Cn1ccnc1 (stereo not shown),9.67%
15,CC(=O)c1ccc(OC(=O)C(CCS(C)(=O)=O)N2C(=O)c3ccccc3C2=O)cc1 (stereo not shown),-0.543%
16,OCCOc1ccc(CN2CCCC(N3CCN(c4ccc(F)cc4)CC3)C2)cc1 (stereo not shown),-69.8%
17,CC(=O)c1c(C)n(CCCOC(C)C)c2ccc(O)cc12,-30.4%
18,COc1c(C)oc2cc(O)ccc2c1=O,10.9%
19,CCCN(c1ccc(C)cc1)c1nc(=O)c2cccnc2s1,-28%
20,O=C(C1Cc2ccccc2CN1S(=O)(=O)c1ccc(F)cc1)N1CCCCCC1 (stereo not shown),-12.2%
21,O=C(CSc1nc2ccc(S(=O)(=O)N3CCOCC3)cc2[nH]1)N1CCOCC1,14.7%
22,Cc1ccccc1S(=O)(=O)c1cc2ccccc2nc1N,7.84%
